# PMC12136788
# This is one part of the list.
# B1: chr7:41961162:41961264:-|3pUTR|ENSG00000106571|unk|FALSE|bound_elsewhere (ssRNA)
# RNA: GGGAGUUCUACAGUCCGACGAUCCCCUUGUGUAUCCUGCAGACAUGUAAAAUAAAAUACAAGUUCAUUUUUUUCACCUUUUUUAGAUUUUUUUAAAAAAUAAAAUGUGUAAUCCUUUUUUUAAAAGAAACACAUGUAAAUACACAACAGAGGAUUGAGCAUCA
# B2: chr3:64018827:64018930:-|CDS|ENSG00000163636|unk|total|mutant (ssRNA)
# RNA: GGGAGUUCUACAGUCCGACGAUCUGAACUCAUGGAUUAUAAAACAUUUGUGACUUAUACUGUCUAUGUCAGUAUGAUUGCCUCCGAAAGACCAGAUCUCAGGGAAAAGGUAAUGACCAAACUUUAAUACUCAAAUUUAAAGACCAACAGAGGAUUGAGCAUCA
# B3: chr5:154419581:154419682:+|3pUTR|ENSG00000164574|msi1|total|mutant (ssRNA)
# RNA: GGGAGUUCUACAGUCCGACGAUCAAAGGGAUGGGUGUGUCCUCUGAGCACUCUGGCAUUUGUCAUUGCUGAGCCCAUAUCAGCCGGUCCUGGGACUUGACAAAGUAUGUGGGAGGGGAAGGAAGGACAGAACUUGACUGGCUCCAACAGAGGAUUGAGCAUCA
# B4: ENSG00000083457:stop:overlap|stop_codon|ENSG00000083457|stop_codon|NA|stop_codon (ssRNA)
# RNA: GGGAGUUCUACAGUCCGACGAUCACUUGGAGAGCAUCAGGAAGGCCCAGCUGAAAUCAGAGAAUCUGCUCGAAGAAGAGAAUUAGGACCUGCUAUCCACUGGGAGAGGCUAUCAGCCAGUCCUGGGACUUGGAGACCCAGCAUCAACAGAGGAUUGAGCAUCA
# B5: chr7:77749912:77750028:+|CDS|ENSG00000187257|unk|FALSE|unique (ssRNA)
# RNA: GGGAGUUCUACAGUCCGACGAUCUGCAGCUUUCUACGUGAUGGGUAUUGUUCAUGGGGCAGCUACUUAUUUACCUGACUUUUUAGACUAUUUUUCAUUUAAUUUUCCCAAUUCACCAGUGAAAAUGGAGAUAUUGGGAAAGAACAACAGAGGAUUGAGCAUCA
# B6: ENSG00000070961:be:win_2201|CDS|ENSG00000070961|bound_else_gene|NA|bound_elsewhere_windowed (ssRNA)
# RNA: GGGAGUUCUACAGUCCGACGAUCUAGAAGGUAAAGAUUUUAACAGAAGAAUACGAAAUGAAAAAGGAGAGAUUGAGCAAGAGAGGAUAGACAAGAUUUGGCCAAAACUUCGAGUACUUGCAAGAUCAUCUCCUACUGAUAAGCCAACAGAGGAUUGAGCAUCA
# B7: chr5:116443554:116446612:-|three_prime_utr|ENSG00000092421|control|control|control (ssRNA)
# RNA: GGGAGUUCUACAGUCCGACGAUCCCGCCAGUGUUACAGCUUUCUGUUGCAGCAGAUAAAUGCCAUGUUGGGCAACUAUGUCAUAGAUUUCUGCUCCUCCUCUCUUUUAAUGAAAUAACGUGACCGUUAACGCAAGUAACUCUUCAACAGAGGAUUGAGCAUCA
# B8: chr1:42278343:42278454:-|CDS|ENSG00000198815|unk|FALSE|bound_elsewhere (ssRNA)
# RNA: GGGAGUUCUACAGUCCGACGAUCAAAAAGAAAAUGACUUUAAGUGAAAUUUAUCAGUGGAUUUGUGAUAACUUCCCAUAUUAUAGAGAGGCUGGCAGUGGUUGGAAGGUAAGGAUUUUAUUUAAAUUAUUACUUUUAUGAAGUCAACAGAGGAUUGAGCAUCA
# B9: chr1:94983078:94983306:-|CDS|ENSG00000172339|control|control|control (ssRNA)
# RNA: GGGAGUUCUACAGUCCGACGAUCCCUUGGGAUACUAGGAAUAAAGAAAGUGAUCAUUGUCUACGUUGAAAGCAUCUGCCGUGUAGAAACGUUAUCCAUGUCCGGAAAGAUUCUGUUUCAUCUCUCAGAUUACUUCAUUGUUCACAACAGAGGAUUGAGCAUCA
# B10: chr11:62152232:62152344:+|3pUTR|ENSG00000149503|unk|total|mutant (ssRNA)
# RNA: GGGAGUUCUACAGUCCGACGAUCUGCUCUGUAAACCGUUGUUUUAAUUCCGCUGAAUGUCCGCAUUUCCGUCUUUGGCAUUUCCGCGUUUGGGAGGCCGAUUAAUAAAGUAUAUUCCUUCAAGCCUGCUGUUGAUACCAUGAACAACAGAGGAUUGAGCAUCA
# B11: chr7:73478007:73478118:-|CDS|ENSG00000009954|unk|total|mutant (ssRNA)
# RNA: GGGAGUUCUACAGUCCGACGAUCAAAGGCACGCAGAAGAUGACACGAGCCCCACGGAAUUCUGGGGGUACACCCCGGACCUCCCGUAAACCUCAUAAACAUCUGCCUCCUGCAGCCCUACACCUCAUUGCAUACUACAAAGAACAACAGAGGAUUGAGCAUCA
# B12: ENSG00000133640:stop:overlap|stop_codon|ENSG00000133640|stop_codon|NA|stop_codon (ssRNA)
# RNA: GGGAGUUCUACAGUCCGACGAUCAGGCACACAGACACUCAGCAGGAUCUUCAAGUAAGUUGUGGUUUCCUUCAAAAUUAAUUUAGAAAUCACAAACGAAUUGAUGGAACCUAAUGCCAACAAGCAUUCUUUUUCAGAUAGGGGCAACAGAGGAUUGAGCAUCA
# B13: chr7:18026828:18027782:-|CDS|ENSG00000229937|control|control|control (ssRNA)
# RNA: GGGAGUUCUACAGUCCGACGAUCUGGAAUCUUUUCUGGCCCAGCCAUUUCUCGCAUCAACACUGCAUGCUUUGAAGCAGUGGUAGUCACCAAUACCAUACCUCAAGAUGAGAAGAUGAAGCAUUGCUCCAAAAUACGAGUAAUCAACAGAGGAUUGAGCAUCA
# B14: chr12:130875966:130876013:+|3pUTR|ENSG00000132341|msi1_unk|FALSE|overlapping (ssRNA)
# RNA: GGGAGUUCUACAGUCCGACGAUCGAUGAGGAUGAUGACCUGUGAGAAUGAAGCUGGAGCCCAGCGUCAGAAGUCUAGUUUUAUAGGCAGCUGUCCUGUGAUGUCAGCGGUGCAGCGUGUGUGCCACCUCAUUAUUAUCUAGCUCAACAGAGGAUUGAGCAUCA
# B15: chr12:6655637:6655878:-|three_prime_utr|ENSG00000111653|control|control|control (ssRNA)
# RNA: GGGAGUUCUACAGUCCGACGAUCUCACUUGGUUUCUUCAAAGAUGUCUGUUGGAGCUAUUCCCAUACCCACUGAAGGAUCUGUAGUCUUGUCUUCAUUCUAUGUAGCCAUGUUCAAGGAUGUAACAGACUGGUUUUGAGAUACCAACAGAGGAUUGAGCAUCA
# B16: chr18:21869459:21869560:+|3pUTR|ENSG00000101752|msi1|total|mutant (ssRNA)
# RNA: GGGAGUUCUACAGUCCGACGAUCUAAAAGAUGGUCUUCCGUGCACGUGUAUCAUUAUAUACACGUUUUAAAGUCAUAUUGCUCCGCUUGUUAAUAAUGAUUCUGCAUGUGUGCUGGGUUUGGGUAAUUCUUUAAAGGAAGUUUCAACAGAGGAUUGAGCAUCA
# B17: chr4:67617988:67618115:-|3pUTR|ENSG00000033178|unk|FALSE|unique (ssRNA)
# RNA: GGGAGUUCUACAGUCCGACGAUCAAAUGUAGAAUGUUAAAAAUUAUUGCUAGGGUAGUCUUUUUUUUUUCCAGAAACCUAAUUAGGGUAUUAAAUUUUGUGUUUUUUUUGUUUUUUUUUUUUAAACAGAAGCAUGUUAUUUCACAACAGAGGAUUGAGCAUCA
# B18: ENSG00000198589:be:win_8401|CDS|ENSG00000198589|bound_else_gene|NA|bound_elsewhere_windowed (ssRNA)
# RNA: GGGAGUUCUACAGUCCGACGAUCAAGCAGCUCUUUGCCUAUCCAGGAUGUGACGCUGGAAUCCGGGCCAUGGCGCUGUCUUACGACCAGAGGUGCAUCAUUUCUGGCAUGGCUUCAGGAAGCAUUGUGCUAUUUUACAACGACCAACAGAGGAUUGAGCAUCA
# B19: chr5:138934237:138934351:+|3pUTR|ENSG00000044115|msi1_unk|FALSE|overlapping (ssRNA)
# RNA: GGGAGUUCUACAGUCCGACGAUCUUUCCAAGAACAUAGUUUAAGUUGAUUAAAAAUGCUUUUAGAAUGCAGGAGCCUACUUCUAGCUGUAUUUUUUGUAUGCUUAAAUAAAAAUAAAAAUUCAUAACCAAAGAGAAUCCCACACAACAGAGGAUUGAGCAUCA
# B20: chr2:30159184:30159288:+|3pUTR|ENSG00000119801|unk|FALSE|bound_elsewhere (ssRNA)
# RNA: GGGAGUUCUACAGUCCGACGAUCAAAAUCUGGGCUGUUAGAGUGAAAAAGUGUGUUUUAUGUCAAUUGUGAAAGGAAAAUGUUAGGAGUAUGGUUUUUAAACUUGGGCUUCAUUUUAAACUUUUUUUUUUAAACCCAGUUAUUCAACAGAGGAUUGAGCAUCA
# B21: ENSG00000198589:be:win_8051|CDS|ENSG00000198589|bound_else_gene|NA|bound_elsewhere_windowed (ssRNA)
# RNA: GGGAGUUCUACAGUCCGACGAUCGCCAUGACUAUGAGGUCACAUGUGCUGCGGUGUGUGCGGAGCUAGGCCUGGUGUUGAGUGGUUCACAAGAAGGACCAUGUCUCAUACAUUCCAUGAAUGGAGACUUGUUGAGGACCUUGGCAACAGAGGAUUGAGCAUCA
# B22: chr2:182778012:182778113:+|3pUTR|ENSG00000077232|msi1|total|mutant (ssRNA)
# RNA: GGGAGUUCUACAGUCCGACGAUCUAAAGAUAUAUGUGUUCAUGUAUUUUCUGAAAUUGCUUUCACCGAAAUUUUCCCACUGACCGUUGAUUUUUGAGGCAUCUAAUAUUUACAUAUUUGCCUUCUGAACUUUGUUUUGACCUGCAACAGAGGAUUGAGCAUCA
# Target: MSI1 full-length (mouse, UniProt Q61474 1-362)
# UniProt Q61474, sequence (Q61474 whole entry): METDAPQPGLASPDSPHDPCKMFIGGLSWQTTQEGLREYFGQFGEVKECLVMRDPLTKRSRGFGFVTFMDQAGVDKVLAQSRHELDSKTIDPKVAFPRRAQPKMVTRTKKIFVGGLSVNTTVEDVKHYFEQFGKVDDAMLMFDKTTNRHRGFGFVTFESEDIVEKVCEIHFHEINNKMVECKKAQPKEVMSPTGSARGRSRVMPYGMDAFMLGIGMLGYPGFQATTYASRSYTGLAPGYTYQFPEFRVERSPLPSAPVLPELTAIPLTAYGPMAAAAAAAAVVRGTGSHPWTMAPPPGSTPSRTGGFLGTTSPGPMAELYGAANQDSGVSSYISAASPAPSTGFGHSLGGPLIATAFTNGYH
# Assay: nsRBNS (natural sequence RNA bind-n-seq); RBNS binding buffer (assumed for nsRBNS): 25 mM Tris pH 7.5, 150 mM KCl, 3 mM MgCl2, 0.01% Triton X-100, 500 ug/ml BSA, 20 U/ml SUPERase-In, 4 C; UNK is unkempt and MSI1 is Musashi-1; names of the RNAs are library labels; protein concentration not given here; high values mean tight binding
row,Binder,binding signal [enrichment R]
1,B1,1.25
2,B2,0.324
3,B3,0.421
4,B4,0.592
5,B5,0.776
6,B6,1.49
7,B7,0.417
8,B8,3.1
9,B9,0.232
10,B10,0.406
11,B11,0.327
12,B12,0.443
13,B13,0.367
14,B14,0.631
15,B15,0.297
16,B16,0.32
17,B17,6.09
18,B18,0.324
19,B19,1.48
20,B20,0.967
21,B21,0.416
22,B22,0.366
